± gives the standard deviation. In all, about 6,600 sequences were measured (“pre-steady-state target cleavage rate”: median about 0.07, highest 2% from about 0.72 on). The list shows a part of the results, in another mix than the full data.
system: MIWI (PIWIL1) piRISC loaded with Kctd7 piRNA (30 nt); experiment: pre-steady-state target cleavage rate (min^-1); MIWI and MILI are mouse PIWI proteins and EfPiwi is from a freshwater sponge; tags in brackets are library labels; higher = faster piRNA-guided slicing of the target; details: guide: Kctd7 piRNA 5'p-UGUUAAUCUCUCAGAGAAGGUGACAGUGAU; auxiliary factor: 500 nM mouse GTSF1
How it was run: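 Active affinity-purified piRISC carrying one synthetic guide (1 nM) was mixed with a transcribed, DNA-blocked target RNA library […] in HEPES–potassium acetate buffer at 33 °C for 0–8 or 0–960 min, with or without 500 nM GTSF1 partner protein. Uncleaved targets were then sequenced and normalised to depth and to weakly complementary targets. Three trials were pooled, and k3 was capped at 0.0001 min^-1. A burst-and-steady-state fit was applied to obtain the pre-steady-state cleavage rate.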
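Further: 1 nM active piRISC with 0.1 nM target library at 33 °C single turnover.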

Row | Sequence | pre-steady-state target cleavage rate
1 | UAGUGACAGACCUUGUCUGAGAGAUUUACA | 0.0115 ± 0.0065
2 | UAGUGAGUCAGCUUCUCUGAGAGAUUAUCA | 0.232 ± 0.028
3 | AUCACUGUCAGCUACUCUGAGAGAUUAACA | 0.657 ± 0.038
4 | UAGUGACGCACCUUCUCUGAGAGAUUAACA | 0.6 ± 0.046
5 | UUCACUGUCAGCUUCUCUGAGAGAUUUACA | 0.274 ± 0.033
6 | UAGACUGUCACCUACUCUGAGUGAUUAACA | 0.0181 ± 0.0032
7 | UAGUGACAGUCCGUUCUCUGAGAGAUUAACA | 0.414 ± 0.036
8 | UAGUGACUCACCUACUCUGUGAGAUUAACA | 0.0484 ± 0.0058
9 | UAGUCUGUCACCUUCUCAGUGAGAUUAACA | 0.0242 ± 0.0042
10 | UUCACUGUCACCUUCUCUGAGAGAUAAUCA | 0.149 ± 0.025
11 | UAGUGACACACCUUCUCUGUGAGAUUAUCA | 0.0476 ± 0.0093
12 | UAGUGACAGUGCUUCUCUGACAGAUUAUCA | < 0.0001
13 | UUCACUGUCACCUUCUCUCAGACAUUAACA | 0.0579 ± 0.005
14 | AUCACUGUCACCUUCACUGAGAGAUAAACA | 0.299 ± 0.045
15 | UACACUGUCACCAUCUCUGAGAGUUUAACA | 0.317 ± 0.056
16 | UAGUGACACACCUUCUCUGAGACAUAAACA | 0.00704 ± 0.0039
17 | UAGUCUCUCACCUUCUCUGAGAGAUAAACA | 0.054 ± 0.009
18 | UAGUCUGUCACCUACUCAGAGAGAUUAACA | 0.14 ± 0.014
19 | AUCACUGUCACCUUCUCUGAGACAUAUUGA | 0.00392 ± 0.0034
20 | AUCACUGUCACCUUCUGUGAGAGAUUAUCA | 0.0835 ± 0.019
21 | UAGUGACAGACCAACUCUGAGAGAUUAACA | 0.00397 ± 0.0025
22 | UAGUGACAGUGGAAGACUGAGAGAUUAACC [g2:g14:cont:t1C] | < 0.0001
23 | UAGACUGUCAGCUUCUCUGAGAGAUUAAGA | 0.0909 ± 0.017
24 | UAGACACUCACCUUCUCUGAGAGAUUAACA | 0.642 ± 0.039

Row | Sequence | pre-steady-state target cleavage rate
25 | UUCACUGUCAUCUUCUCUGAGAGAUUAACA | 0.596 ± 0.027
26 | UUCACAGUCACCUUCACUGAGAGAUUAACA | 0.376 ± 0.027
27 | UAGUGACACACCUAGUCUGAGAGAUUAACA | 0.0121 ± 0.0034
28 | UAGUGACAGUGCUUCUCUGAGAGAAUAAGA | < 0.0001
29 | AUCACUGUCACCUACUCUCAGAGAUUAACA | 0.0744 ± 0.0084
30 | UAGUGACACACCUUCUCUGAGAGAUUAAUA | 0.37 ± 0.046
31 | UACACUGACACCUUCUCUGAGUGAUUAACA | 0.0293 ± 0.0068
32 | UAGUCUGUCUCCUUCUCUGACAGAUUAACA | 0.0368 ± 0.0053
33 | UUCACUGUCACCUUGUCUGAGACAUUAACA | 0.193 ± 0.026
34 | UAGUGACAGACCUACUCUGAGAGAUUAAGA | 0.0057 ± 0.003
35 | UAGUCUGUCACCUUCUCUCAGAGAAUAACA | 0.0232 ± 0.0076
36 | UAGACUGAGACCUUCUCUGAGAGAUUAUGA | 0.0178 ± 0.0037
37 | UAGUGACUCACCUUCUCUCAGAGAUUAAGA | 0.0182 ± 0.0076
38 | UAGUGUGUCACCUUCACUGAGAGAUUAUGA | 0.0366 ± 0.016
39 | UAGUGAGUCUCCUUCUCUGAGAGAUUAAGA | 0.0391 ± 0.0095
40 | AUGACUGUCACCUUCUCUGUGAGAUUAACA | 0.278 ± 0.013
41 | UAGUGUGUCACCUUGUCUGAGACAUUAACA | 0.108 ± 0.02
42 | UAGUGACACACCUUCUCUGAGAGUAAUUGA [g8:g22:cont:t1A] | 0.00437 ± 0.0037
43 | UAGUCUGUCACCUUCUCUGAGCAGAUUAACA | 0.00314 ± 0.003
44 | AUCACACUCACCUUCUCUGAGAGAUUAAGA | 0.101 ± 0.019
45 | AUCACUGUGACCUUCUCUGAGAGAAUAACA | 0.28 ± 0.043
46 | UUCUCUGUCACCUUCUCUGAGUGAUUAACA | 0.0369 ± 0.0078
47 | UAGUGACACACCUAGUCUGAGAGAUUUUGA | < 0.0001
48 | UAGUGACAGACCUUCUCUGAGAGAUUAACG [g2:g21:cont:t1G] | 0.104 ± 0.013

Row | Sequence | pre-steady-state target cleavage rate
49 | UAGUGUGUCACCUUCUCUGAGAGUUUUACA | 0.152 ± 0.032
50 | UUCACUGUCACCAACUCUGAGAGAUUAUGA | 0.0107 ± 0.0037
51 | UUCACUGUCACCUUCUCAUGAGAGAUUAACA | 0.145 ± 0.051
52 | UAGUCUGUCACCUUCUCUGUGAGAUUUACA | 0.193 ± 0.022
53 | UAGACUCUCACCUUCUCUGAGACAUUAACA | 0.314 ± 0.028
54 | UAGUGACAGACCUUCUCUGAGAGAUGUAACA | 0.0594 ± 0.0092
55 | UUCACUGUCACCUUCUCUGAGACAUUUUGA | 0.0049 ± 0.0038
56 | UAGUGACUCACCUUCUGUGUGAGAUUAACA | 0.0331 ± 0.0039
57 | UAGUGACUCACCUUCUCUGAGAGAUAACA | 0.0123 ± 0.0033
58 | UAGUGACACACCUUCUGUGACAGAUUAACA | 0.0896 ± 0.016
59 | UAGUGACUCACCUUCUCUGAGACAUUAACA | 0.234 ± 0.029
60 | UAGUGAGUCACCAUGUCUGAGAGAUUAACA | 0.0568 ± 0.0081
61 | UUCACUGUCUGGUUCUCUGAGAGAUUAAGA | 0.0293 ± 0.0053
62 | UAGACUGUCACCUUCUGUCAGAGAUUAACA | 0.00627 ± 0.0021
63 | UACACUGUCAGCUUCUCUGAGAGAUAAACA | 0.21 ± 0.02
64 | UAGUCUGUCACCUUCUCUCAGAGAUUUACA | 0.0799 ± 0.014
65 | AUCACUGUCACCUUCUCUGAGAGAAUAUCA | 0.37 ± 0.086
66 | UAGAGACUCACCUUCUCUGAGAGAUUUUGA | 0.0406 ± 0.0092
67 | UUCACUGUCACCUUCUCUGAGAGAUUCACA | 0.554 ± 0.087
68 | UAGUCUGUCACCUUCCUCUGAGAGAUUAACA | 0.453 ± 0.03
69 | UAGUGACAGACCUUCUCUGAGGGAUUAACA | 0.117 ± 0.016
70 | UUGUGUGUCACCUUCUCUGAGAGAUUAUGA | 0.11 ± 0.021
71 | UAGACUGUCACCUUCUCUGAGAGAUAUAGA | 0.00718 ± 0.004
72 | AUCAGUGUCUCCUUCUCUGAGAGAUUAACA | 0.585 ± 0.04
